In PMC4336329 (PLoS ONE, 2015):
The whole screen tested about 310,000 compounds, of which about 14,000 (4.5%) showed an effect of 50% or more. The effect is printed as a negative number. The list shows a part of the results.

target: human ether-à-go-go-related gene (hERG) potassium channel (human, UniProt Q12809); experiment: primary screen, population patch clamp on CHO cells stably expressing hERG
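Further: peak tail current of the secondary pulse compared with the same well before compound.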

human ether-à-go-go-related gene (hERG) potassium channel, sequence (Q12809 whole entry, looked up): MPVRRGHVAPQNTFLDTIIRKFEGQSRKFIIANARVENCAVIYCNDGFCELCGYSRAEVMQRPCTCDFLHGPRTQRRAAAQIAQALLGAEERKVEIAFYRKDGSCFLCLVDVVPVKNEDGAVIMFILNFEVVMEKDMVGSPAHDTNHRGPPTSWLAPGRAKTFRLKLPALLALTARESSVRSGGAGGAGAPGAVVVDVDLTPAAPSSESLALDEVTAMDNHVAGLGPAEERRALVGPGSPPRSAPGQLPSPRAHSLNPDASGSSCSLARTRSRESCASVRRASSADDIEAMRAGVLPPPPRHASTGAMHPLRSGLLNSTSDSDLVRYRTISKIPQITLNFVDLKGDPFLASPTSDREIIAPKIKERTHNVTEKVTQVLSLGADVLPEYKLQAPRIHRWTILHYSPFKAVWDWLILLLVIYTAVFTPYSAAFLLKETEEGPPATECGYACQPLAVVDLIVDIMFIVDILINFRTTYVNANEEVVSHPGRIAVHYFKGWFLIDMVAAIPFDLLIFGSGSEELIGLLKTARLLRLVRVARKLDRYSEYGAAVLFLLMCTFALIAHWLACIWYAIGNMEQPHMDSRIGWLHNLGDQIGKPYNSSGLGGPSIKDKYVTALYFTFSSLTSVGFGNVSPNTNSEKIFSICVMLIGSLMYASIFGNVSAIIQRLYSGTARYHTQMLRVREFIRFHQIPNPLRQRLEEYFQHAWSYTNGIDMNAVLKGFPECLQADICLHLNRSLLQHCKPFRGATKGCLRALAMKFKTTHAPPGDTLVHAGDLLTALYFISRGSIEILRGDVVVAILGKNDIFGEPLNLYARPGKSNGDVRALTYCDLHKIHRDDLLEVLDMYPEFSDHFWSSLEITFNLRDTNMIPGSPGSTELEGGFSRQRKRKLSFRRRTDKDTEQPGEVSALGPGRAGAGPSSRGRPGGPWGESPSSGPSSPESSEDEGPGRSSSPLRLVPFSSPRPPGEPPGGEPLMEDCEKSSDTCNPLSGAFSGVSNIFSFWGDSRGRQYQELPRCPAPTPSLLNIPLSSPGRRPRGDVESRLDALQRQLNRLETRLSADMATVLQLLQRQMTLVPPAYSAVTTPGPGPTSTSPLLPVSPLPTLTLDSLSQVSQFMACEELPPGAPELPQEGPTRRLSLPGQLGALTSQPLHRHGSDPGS

Compared with `COc1ccc2oc(=O)c(C(=O)NCc3cccnc3)cc2c1`, `Cc1ccc(OCCn2c(CCNC(=O)C(C)C)nc3ccccc32)cc1` is higher in “hERG current change (%, negative = inhibition) at 10uM” value: -4.71% for the first, 1.88% for the second.

First: COc1ccc(CC(NC(C)=O)C(=O)NC2CCN(c3c(Cc4ccccc4)c(C)nc4ncnn34)CC2)c(OC)c1 (stereo not shown)
Second: COCCNC(=O)c1cccc(OC2CCN(Cc3ccc(F)cc3OC)CC2)c1
The “hERG current change (%, negative = inhibition) at 10uM” value of the first is higher: -6.32% for the first, -23.1% for the second.

Going from `Cc1c(NC(=O)C(C)Sc2nnc(-c3ccccc3)o2)c(=O)n(-c2ccccc2)n1C` (stereo not shown) to `COc1ccccc1-c1nnc(SC(C)C(=O)N2CCOCC2)o1` (stereo not shown), the “hERG current change (%, negative = inhibition) at 10uM” value falls from 1.32% to -1.89%.

First: CCCN1C(=S)SC(C)(C)C1/[N+]([O-])=C/c1cccnc1 (stereo not shown)
Second: CCCCCc1nnc(NC(=O)Cc2ccc([N+](=O)[O-])cc2)s1
The “hERG current change (%, negative = inhibition) at 10uM” value of the first is lower: -7.57% for the first, 23.7% for the second.

Going from `CCc1c(C)nc2ccc(Br)cc2c1Cl` to `Cc1nc2ccc(N)cc2s1`, the “hERG current change (%, negative = inhibition) at 10uM” value falls from 1.95% to -0.603%.

Compared with `COc1ccc(C2=NN(C(=O)CSc3nc4ccccc4s3)C(c3ccc(F)cc3)C2)cc1` (stereo not shown), `COc1ccc(C(=O)/C=C/Nc2ccc(S(=O)(=O)Nc3ncccn3)cc2)cc1` is higher in “hERG current change (%, negative = inhibition) at 10uM” value: 6.36% for the first, 9.75% for the second.

Going from `O=C1C2C(c3ccccc3)CC=CC2[C@H](c2ccc(C(F)(F)F)cc2)N1Cc1ccccc1` (stereo partly shown) to `CN(C)N1C(N)=C(C#N)C(c2cccc3ccccc23)C2=C1CC(c1ccccc1)CC2=O` (stereo not shown), the “hERG current change (%, negative = inhibition) at 10uM” value rises from -2.51% to -0.28%.

First: Cc1ccc2cc3c(NC(=O)CC(C)C)nn(C)c3nc2c1
Second: Cc1cccc(NC(=O)Cn2cnc3c(oc4ccccc43)c2=O)c1C
The “hERG current change (%, negative = inhibition) at 10uM” value of the first is higher: 2.71% for the first, -5.09% for the second.

Compared with `CC1=C(C(=O)Nc2ccc(C(=O)NCCCN3CCCCC3)cc2)SCCO1`, `Cc1[nH]c2ccc(C(=O)NCCN3CCCCCC3)cc2c1C` is higher in “hERG current change (%, negative = inhibition) at 10uM” value: -24.8% for the first, -2.23% for the second.

First: O=C(NC1CCCCNC1=O)c1ccc(Cl)cc1 (stereo not shown)
Second: O=C(Cn1nnc(-c2ccc(Cl)cc2)n1)NC1CC2CCC1C2 (stereo not shown)
The “hERG current change (%, negative = inhibition) at 10uM” value of the first is higher: 13.1% for the first, 11.7% for the second.

First: Cc1cccn2cc(-c3c[nH]c4ccccc34)nc12
Second: Cc1ccccc1C(=O)Nc1ccccc1
The “hERG current change (%, negative = inhibition) at 10uM” value of the first is lower: -12.7% for the first, -9.89% for the second.

First: CC(C)c1ccc(NC(=S)NNC(=O)c2cccs2)cc1
Second: CC(=C/c1ccccc1)/C=N/NC(=O)c1cccs1
The “hERG current change (%, negative = inhibition) at 10uM” value of the first is higher: 14.1% for the first, -4.31% for the second.

First: Cc1cc(Br)c(S(=O)(=O)NCc2ccncc2)cc1C
Second: COc1cc2[nH]c(=S)nc(NCc3ccccc3)c2cc1OC
The “hERG current change (%, negative = inhibition) at 10uM” value of the first is higher: 7.87% for the first, 3.91% for the second.

Going from `O=C(Cc1cccc(C(F)(F)F)c1)NCc1ccc(Cl)cc1Cl` to `Fc1ccc(-c2cn3cc(C(F)(F)F)cc(Cl)c3n2)cc1`, the “hERG current change (%, negative = inhibition) at 10uM” value falls from 15.7% to 6.92%.

Going from `Cc1cc(C)n(-c2ncnc3sc4c(c23)CCCC4)n1` to `Cc1cc2cccc(C)c2nc1SCC(=O)NCC1CCCO1` (stereo not shown), the “hERG current change (%, negative = inhibition) at 10uM” value rises from -14.8% to -2.53%.

Compared with `CC(C)CC(NC(=O)c1ccc(Cl)cc1)C(=O)OCC(=O)c1ccc2c(c1)NC(=O)CO2` (stereo not shown), `Cc1cccc(CCNC(=O)CCS(=O)(=O)c2cc3c(cc2Cl)NC(=O)CO3)c1` is higher in “hERG current change (%, negative = inhibition) at 10uM” value: -20.6% for the first, 3.71% for the second.

Going from `CC1CCOC2(O1)C(=O)N(CN1CCN(c3ccccc3F)CC1)c1ccccc12` (stereo not shown) to `O=C(c1ccccc1)c1ccc(N2CCOCC2)c(NC(=O)c2ccco2)c1`, the “hERG current change (%, negative = inhibition) at 10uM” value falls from 0.531% to -46.3%.

First: CC(=O)c1cccc(NC(=O)C(C)OC(=O)CCCN=C2NS(=O)(=O)c3ccccc32)c1 (stereo not shown)
Second: COc1cccc(-c2ccc3c(c2)S(=O)(=O)c2cccc(C(=O)O)c2C3=O)c1OC
The “hERG current change (%, negative = inhibition) at 10uM” value of the first is higher: 19.1% for the first, 15.1% for the second.

Going from `Cl.OCCN1CCN(CCCc2c3c(cc4c2CCC4)CCC3)CC1` to `Cc1cc(NC(=S)N(CCN2CCCCC2)Cc2ccco2)ccc1Cl`, the “hERG current change (%, negative = inhibition) at 10uM” value falls from -4.48% to -55.3%.

Going from `Cc1ccc(C(C(=O)NC2CCCCC2)N(Cc2cccnc2)C(=O)C2COc3ccccc3O2)o1` (stereo not shown) to `O=C(NCc1ccco1)c1cccc(S(=O)(=O)N2CCc3ccccc32)c1`, the “hERG current change (%, negative = inhibition) at 10uM” value rises from -59.7% to -9.6%.

Compared with `COc1ccc([N+](=O)[O-])cc1COc1cc(C)cc2oc(=O)cc(-c3ccccc3)c12`, `O=c1c2c(-c3ccco3)csc2nc(SCc2cn3cccnc3n2)n1-c1ccccc1` is lower in “hERG current change (%, negative = inhibition) at 10uM” value: 0.0853% for the first, -44.1% for the second.

First: CC(C)C[C@H](NC(=O)OC(C)(C)C)C(=O)N[C@@H](CO)[C@H](O)[C@@H]1C[C@@H]1C(=O)N(C)C
Second: CC(C)OC(=O)c1cc(NC(=O)C2C3CCC(O3)C2C(=O)O)cc(C(=O)OC(C)C)c1 (stereo not shown)
The “hERG current change (%, negative = inhibition) at 10uM” value of the first is higher: 5.96% for the first, 0.691% for the second.

Going from `CSc1ccc(CN(C)C(=O)CNC(=O)c2ccc3c(c2)OCO3)cc1` to `O=C(COC(=O)c1ccc(Br)cc1)Nc1ccccc1Br`, the “hERG current change (%, negative = inhibition) at 10uM” value rises from -3.55% to 15.9%.

First: O=c1[nH]c(C2CCN(S(=O)(=O)c3ccc(S(=O)(=O)NC4CC4)cc3)CC2)nc2c1nnn2Cc1ccccc1
Second: CCCCN(C(=O)c1cccc(S(=O)(=O)N2CCN(Cc3ccccc3)CC2)c1)c1ccccc1
The “hERG current change (%, negative = inhibition) at 10uM” value of the first is higher: 23.5% for the first, 12.5% for the second.

Compared with `CCc1ccc(C2NC(=S)NC3=C2C(=O)CCC3)cc1` (stereo not shown), `O=C(CSc1nccc(=O)[nH]1)Nc1ccc(N2CCOCC2)c(Cl)c1` is higher in “hERG current change (%, negative = inhibition) at 10uM” value: 11.3% for the first, 15.3% for the second.

First: COc1cc(/C=C/c2ccc(O)cc2)cc(OC)c1
Second: O=C(c1cncc(Br)c1)N1CCN(S(=O)(=O)c2ccc(Cl)cc2)CC1
The “hERG current change (%, negative = inhibition) at 10uM” value of the first is higher: -2.2% for the first, -44.3% for the second.

Compared with `CCn1c(SCC(=O)NCc2cccs2)nc2c1c(=O)n(C)c(=O)n2C`, `CC(C)(C)NC(=O)NC(=O)CN1CCN(c2ncc(C(F)(F)F)cc2Cl)CC1` is higher in “hERG current change (%, negative = inhibition) at 10uM” value: -34.9% for the first, -13.3% for the second.

`Nc1n[nH]c(N)c1N=Nc1cccc(F)c1` was tested, and the “hERG current change (%, negative = inhibition) at 10uM” value was 2%.
